# Measurements from the supplement of paper PMC8728848.
# The other results are listed elsewhere or left out.
# B1: MpAFP NterminalRI GFP (Marinomonas primoryensis) (protein)
# chain: MSDNQFPFATLGNAIGFITKLDGSVTVQSIDGQERVLKLGDPIFFGETVLTGGSGSVTIAFVDGTDVVIGGDSIVEMTDEIYNTGDNEDLVADSSSEIDALQNAILAGDDPTLIQDAPAAGNTLADQQRVDVSIERNDNSAQAGFGVDTQSSLPTYGYDTDNGNGGQATEREYSAPSLSRTLNQSPLLEHHHHHH
# Tests used:
# Assay in all cases: glycan array binding signal (z-score within array); higher = stronger binding
# Settings in all cases: glycan notation: IUPAC condensed, linker removed
# [1] = target: Fuc(a1-2)Gal(b1-4)GlcNAc(b1-3)Gal(b1-4)GlcNAc(b1-2)Man(a1-3)[Fuc(a1-2)Gal(b1-4)GlcNAc(b1-3)Gal(b1-4)GlcNAc(b1-2)Man(a1-6)]Man(b1-4)GlcNAc(b1-4)GlcNAc
# Procedure, shortened: (§1)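 Glycan array data were curated from 3228 arrays in the Consortium for Functional Glycomics database and kept only where the protein sequence was available. Glycan names were converted to IUPAC-condensed notation, and columns mapping to the same glycan were averaged. The binding signal is a within-array Z-score, averaged across arrays of the same protein sequence at different concentrations or buffers and across linkers. Negative Z-scores can be read as non-binding.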
# [2] = target: Fuc(a1-2)Gal(b1-4)GlcNAc(b1-3)Gal(b1-4)GlcNAc(b1-3)Gal(b1-4)GlcNAc
# Procedure, shortened: as §1
# [3] = target: Fuc(a1-2)Gal(b1-4)GlcNAc(b1-3)GalNAc
# Procedure, shortened: as §1
# [4] = target: Fuc(a1-2)Gal(b1-4)GlcNAc(b1-3)[Fuc(a1-2)Gal(b1-4)GlcNAc(b1-6)]GalNAc
# Procedure, shortened: as §1
# [5] = target: Fuc(a1-2)Gal(b1-4)GlcNAc(b1-3)[Fuc(a1-3)[Gal(b1-4)]GlcNAc(b1-6)]Gal(b1-4)Glc
# Procedure, shortened: as §1
# [6] = target: Fuc(a1-2)Gal(b1-4)GlcNAc(b1-6)GalNAc
# Procedure, shortened: as §1
# [7] = target: Fuc(a1-2)Gal(b1-4)GlcNAc6S
# Procedure, shortened: as §1
# [8] = target: Fuc(a1-2)Gal(b1-4)[Fuc(a1-3)]GlcNAc
# Procedure, shortened: as §1
# [9] = target: Fuc(a1-2)Gal(b1-4)[Fuc(a1-3)]GlcNAc(b1-2)Man(a1-3)[Fuc(a1-2)Gal(b1-4)[Fuc(a1-3)]GlcNAc(b1-2)Man(a1-6)]Man(b1-4)GlcNAc(b1-4)[Fuc(a1-6)]GlcNAc
# Procedure, shortened: as §1
# [10] = target: Fuc(a1-2)Gal(b1-4)[Fuc(a1-3)]GlcNAc(b1-2)[Fuc(a1-2)Gal(b1-4)[Fuc(a1-3)]GlcNAc(b1-4)]Man(a1-3)[Fuc(a1-2)Gal(b1-4)[Fuc(a1-3)]GlcNAc(b1-2)Man(a1-6)]Man(b1-4)GlcNAc(b1-4)GlcNAc
# Procedure, shortened: as §1
# [11] = target: Fuc(a1-2)Gal(b1-4)[Fuc(a1-3)]GlcNAc(b1-3)Gal(b1-4)[Fuc(a1-3)]GlcNAc
# Procedure, shortened: as §1
# [12] = target: Fuc(a1-2)Gal(b1-4)[Fuc(a1-3)]GlcNAc(b1-3)Gal(b1-4)[Fuc(a1-3)]GlcNAc(b1-3)Gal(b1-4)[Fuc(a1-3)]GlcNAc
# Procedure, shortened: as §1
# [13] = target: Fuc(a1-2)Gal(b1-4)[Fuc(a1-3)]GlcNAc(b1-3)GalNAc
# Procedure, shortened: as §1
# [14] = target: Fuc(a1-2)Gal(b1-4)[Fuc(a1-3)]GlcNAc(b1-3)[Neu5Ac(a2-6)Gal(b1-4)GlcNAc(b1-6)]Gal(b1-4)Glc
# Procedure, shortened: as §1
# [15] = target: Fuc(a1-2)Gal3S(b1-4)GlcNAc
# Procedure, shortened: as §1
# [16] = target: Fuc(a1-2)Gal6S(b1-3)GlcNAc
# Procedure, shortened: as §1
# [17] = target: Fuc(a1-2)Gal6S(b1-3)GlcNAc6S
# Procedure, shortened: as §1
# Fuc(a1-2)Gal6S(b1-4)Glc = target: Fuc(a1-2)Gal6S(b1-4)Glc
# Procedure, shortened: as §1
# [18] = target: Fuc(a1-2)Gal6S(b1-4)Glc6S
# Procedure, shortened: as §1
# Fuc(a1-2)[Gal(a1-3)]Gal = target: Fuc(a1-2)[Gal(a1-3)]Gal
# Procedure, shortened: as §1
# [19] = target: Fuc(a1-2)[Gal(a1-3)]Gal(b1-3)GalNAc
# Procedure, shortened: as §1
# [20] = target: Fuc(a1-2)[Gal(a1-3)]Gal(b1-3)GalNAc(b1-3)Gal(a1-4)Gal(b1-4)Glc
# Procedure, shortened: as §1
# [21] = target: Fuc(a1-2)[Gal(a1-3)]Gal(b1-3)GlcNAc
# Procedure, shortened: as §1
# [22] = target: Fuc(a1-2)[Gal(a1-3)]Gal(b1-3)GlcNAc(b1-2)Man(a1-3)[Fuc(a1-2)[Gal(a1-3)]Gal(b1-3)GlcNAc(b1-2)Man(a1-6)]Man(b1-4)GlcNAc(b1-4)GlcNAc
# Procedure, shortened: as §1
# [23] = target: Fuc(a1-2)[Gal(a1-3)]Gal(b1-3)GlcNAc(b1-2)Man(a1-3)[Fuc(a1-2)[Gal(a1-3)]Gal(b1-3)GlcNAc(b1-2)Man(a1-6)]Man(b1-4)GlcNAc(b1-4)[Fuc(a1-6)]GlcNAc
# Procedure, shortened: as §1
# [24] = target: Fuc(a1-2)[Gal(a1-3)]Gal(b1-3)GlcNAc(b1-3)GalNAc
# Procedure, shortened: as §1
# [25] = target: Fuc(a1-2)[Gal(a1-3)]Gal(b1-3)GlcNAc(b1-6)GalNAc
# Procedure, shortened: as §1
# [26] = target: Fuc(a1-2)[Gal(a1-3)]Gal(b1-4)Glc
# Procedure, shortened: as §1
# [27] = target: Fuc(a1-2)[Gal(a1-3)]Gal(b1-4)GlcNAc
# Procedure, shortened: as §1
# [28] = target: Fuc(a1-2)[Gal(a1-3)]Gal(b1-4)GlcNAc(b1-2)Man
# Procedure, shortened: as §1
# [29] = target: Fuc(a1-2)[Gal(a1-3)]Gal(b1-4)GlcNAc(b1-2)Man(a1-3)[Fuc(a1-2)[Gal(a1-3)]Gal(b1-4)GlcNAc(b1-2)Man(a1-6)]Man(b1-4)GlcNAc(b1-4)GlcNAc
# Procedure, shortened: as §1
# [30] = target: Fuc(a1-2)[Gal(a1-3)]Gal(b1-4)GlcNAc(b1-2)Man(a1-3)[Fuc(a1-2)[Gal(a1-3)]Gal(b1-4)GlcNAc(b1-2)Man(a1-6)]Man(b1-4)GlcNAc(b1-4)[Fuc(a1-6)]GlcNAc
# Procedure, shortened: as §1
# [31] = target: Fuc(a1-2)[Gal(a1-3)]Gal(b1-4)GlcNAc(b1-3)GalNAc
# Procedure, shortened: as §1
# [32] = target: Fuc(a1-2)[Gal(a1-3)]Gal(b1-4)GlcNAc(b1-3)[Fuc(a1-2)[Gal(a1-3)]Gal(b1-4)GlcNAc(b1-6)]GalNAc
# Procedure, shortened: as §1
# [33] = target: Fuc(a1-2)[Gal(a1-3)]Gal(b1-4)GlcNAc(b1-6)GalNAc
# Procedure, shortened: as §1
# [34] = target: Fuc(a1-2)[Gal(a1-3)]Gal(b1-4)[Fuc(a1-3)]Glc
# Procedure, shortened: as §1
# [35] = target: Fuc(a1-2)[Gal(a1-3)]Gal(b1-4)[Fuc(a1-3)]GlcNAc
# Procedure, shortened: as §1
# [36] = target: Fuc(a1-2)[Gal(a1-3)]Gal(b1-4)[Fuc(a1-3)]GlcNAc(b1-3)GalNAc
# Procedure, shortened: as §1
# [37] = target: Fuc(a1-2)[Gal(a1-4)]Gal(b1-4)GlcNAc
# Procedure, shortened: as §1
# [38] = target: Fuc(a1-2)[GalNAc(a1-3)]Gal
# Procedure, shortened: as §1
# [39] = target: Fuc(a1-2)[GalNAc(a1-3)]Gal(b1-3)GalNAc(a1-3)[Fuc(a1-2)]Gal(b1-4)GlcNAc
# Procedure, shortened: as §1
# [40] = target: Fuc(a1-2)[GalNAc(a1-3)]Gal(b1-3)GalNAc(b1-3)Gal(a1-4)Gal(b1-4)Glc
# Procedure, shortened: as §1
# [41] = target: Fuc(a1-2)[GalNAc(a1-3)]Gal(b1-3)GlcNAc
# Procedure, shortened: as §1
# [42] = target: Fuc(a1-2)[GalNAc(a1-3)]Gal(b1-3)GlcNAc(b1-2)Man(a1-3)[Fuc(a1-2)[GalNAc(a1-3)]Gal(b1-3)GlcNAc(b1-2)Man(a1-6)]Man(b1-4)GlcNAc(b1-4)GlcNAc
# Procedure, shortened: as §1
# [43] = target: Fuc(a1-2)[GalNAc(a1-3)]Gal(b1-3)GlcNAc(b1-2)Man(a1-3)[Fuc(a1-2)[GalNAc(a1-3)]Gal(b1-3)GlcNAc(b1-2)Man(a1-6)]Man(b1-4)GlcNAc(b1-4)[Fuc(a1-6)]GlcNAc
# Procedure, shortened: as §1
binder,measurement,setting,value
B1,glycan array binding signal (z-score),[1],0.233
same,glycan array binding signal (z-score),[2],-0.069
same,glycan array binding signal (z-score),[3],0.733
same,glycan array binding signal (z-score),[4],-0.466
same,glycan array binding signal (z-score),[5],-0.232
same,glycan array binding signal (z-score),[6],1.68
same,glycan array binding signal (z-score),[7],-0.585
same,glycan array binding signal (z-score),[8],-0.237
same,glycan array binding signal (z-score),[9],0.532
same,glycan array binding signal (z-score),[10],0.393
same,glycan array binding signal (z-score),[11],-0.147
same,glycan array binding signal (z-score),[12],-0.322
same,glycan array binding signal (z-score),[13],0.29
same,glycan array binding signal (z-score),[14],-0.416
same,glycan array binding signal (z-score),[15],-0.495
same,glycan array binding signal (z-score),[16],-0.059
same,glycan array binding signal (z-score),[17],0.041
same,glycan array binding signal (z-score),Fuc(a1-2)Gal6S(b1-4)Glc,-0.519
same,glycan array binding signal (z-score),[18],-0.356
same,glycan array binding signal (z-score),Fuc(a1-2)[Gal(a1-3)]Gal,-0.494
same,glycan array binding signal (z-score),[19],0.413
same,glycan array binding signal (z-score),[20],-0.022
same,glycan array binding signal (z-score),[21],-0.192
same,glycan array binding signal (z-score),[22],-0.171
same,glycan array binding signal (z-score),[23],-0.062
same,glycan array binding signal (z-score),[24],-0.352
same,glycan array binding signal (z-score),[25],-0.004
same,glycan array binding signal (z-score),[26],-0.151
same,glycan array binding signal (z-score),[27],-0.537
same,glycan array binding signal (z-score),[28],-0.243
same,glycan array binding signal (z-score),[29],-0.087
same,glycan array binding signal (z-score),[30],-0.217
same,glycan array binding signal (z-score),[31],-0.59
same,glycan array binding signal (z-score),[32],-0.48
same,glycan array binding signal (z-score),[33],-0.206
same,glycan array binding signal (z-score),[34],-0.413
same,glycan array binding signal (z-score),[35],-0.414
same,glycan array binding signal (z-score),[36],0.073
same,glycan array binding signal (z-score),[37],0.323
same,glycan array binding signal (z-score),[38],-0.077
same,glycan array binding signal (z-score),[39],-0.445
same,glycan array binding signal (z-score),[40],0.004
same,glycan array binding signal (z-score),[41],-0.215
same,glycan array binding signal (z-score),[42],-0.2
same,glycan array binding signal (z-score),[43],-0.2
